Hit rate of the full screen: of about 48,000 compounds, about 120 (0.25%) were called active. About 4% were inconclusive and are not listed. The call rests on the fitted dose curve; in most records, active means well fitted activation curve with a large enough effect; inconclusive means small, poorly fitted or top-dose-only effect, or another doubt; inactive means no such curve, though single readings can be large or run the other way. This is a selection; strong and weak results do not stand in their true shares. Entries without a call were filed so in the source.
Assay: Primary qHTS for Identification of Small Molecule Activators of Huntingtin-Antisense Promoter Activity; further: nearly all actives have a fitted effect of over 55% in size
Details: HEK293 HTT-AS promoter firefly luciferase reporter, 24 h; activity change, positive = activation: at 57.5 µM (top of the series), percent change from vehicle, -100% = no light
Source text: Assay Provider: Russell L. Margolis M.D.
Department Neurology, Johns Hopkins University School of Medicine, Baltimore, MD
Huntington's Disease (HD) is a neurodegenerative disorder caused by a CAG repeat expansion in exon 1 of huntingtin (HTT). While there are currently no disease-modifying treatments for HD, recent efforts have focused on development of nucleotide-based therapeutics to lower HTT expression. As an alternative to siRNA or oligonucleotide methods, we hypothesized that suppression of HTT expression might be accomplished by small molecules that either (1) directly decrease HTT expression by suppressing HTT promoter activity or (2) indirectly decrease HTT expression by increasing the promoter activity of HTT-AS, the gene antisense to HTT that appears to inhibit expression of HTT.
We developed and employed a high throughput screen for modifiers of HTT and HTT-AS promoter activity using luminescent reporter HEK293 cells; of the 52,041 compounds tested, we identified 898 replicable hits. We used a rigorous stepwise approach to assess compound toxicity and the capacity of the compounds to specifically lower huntingtin protein in 5 different cell lines, including HEK293 cells, HD lymphoblastoid cells, mouse primary neurons, HD iPSCs differentiated into cortical-like neurons, and HD hESCs. We found no compounds which were able to lower huntingtin without lowering cell viability in all assays, though the potential efficacy of a few compounds at non-toxic doses could not be excluded.
SEQUENCE No. (1, 2, 3, etc.); […] (e.g., Cells, Incubation, Reagent, etc.); VALUE and DESCRIPTION.
1; Reagent; 4 uL; 2,500 Hek293 luciferase reporter cells per wells
3; Compound; 23 nL; Control inhibitor / compound library
5; Reagent; 2.5 uL; Firefly Luc reagent; Dual-Glo Luciferase Reporter Assay System (Promega)
6; Time; 10 min; room temperature incubation
7; Detection; Luminescence; FLuc
NOTES (numbers refer to sequence above)
1; High-throughput screening, measuring luminescence from a Hek293 luciferase reporter, was performed in 1,536 well white-walled tissue-culture treated plates. 2,500 cells were plated in 4 µL of Opti-MEM per well using a Multidrop Combi Reagent Dispenser (ThermoFisher).
2; Assay plates were cultured for 24 hours.
3; Control inhibitor (PTC124; final concentration of 50 uM) and compound library (at final concentrations of 460 nM - 57.5 uM) were added to the assay plate using the Kalypsis Pintool Robotic System equipped with 1536 pinheads.
4; Cells were then incubated for 24 hours at 37 degrees C prior to luminescence measurements.
5; In all cases, luminescence was measured using the Dual-Glo Luciferase Reporter Assay System (Promega) following the manufacturer's instructions.
6; Room temperature incubation.
7; Luminescence signal was obtained using the PerkinElmer ViewLux plate reader. Results were normalized to vehicle control (0% activity) and zero RLU (-100% activity).
Work on `CCOC(=O)c1cccc(NC(=O)CCc2c(C)nn(-c3ccc(N4CCCC4)nn3)c2C)c1` yielded an activity change, positive = activation of 0.923%. For `Cc1ccc(C)c(CSc2ccc3nnc(CCNS(=O)(=O)c4ccccc4)n3n2)c1`, the “activity change, positive = activation” value was inactive: -30%. In the case of `CSc1ccc(CCNC(=O)Cn2ncc3c(=O)oc4ccccc4c32)cc1`, the “activity change, positive = activation” value was inactive: -4.03%. Compound `Cc1ccc(CN2C(=O)CN(C3CCC(C)CC3)C(=O)C2c2ccc(F)cc2)cc1` (stereo unspecified) has an activity change, positive = activation of -15.3%. `Cc1ccc(C(=O)Nc2cccc(-c3nc4ccccc4o3)c2)c(Cl)c1` gave an activity change, positive = activation of -0.318%. In the case of `COc1cc(NC(=O)CC2C(=O)N(c3cccc(C)c3)C(=O)N2Cc2ccc(F)cc2)cc(OC)c1` (stereo unspecified), the activity change, positive = activation was -20.4%. With `CCc1ccc(NC(=O)C(CC)n2c(=O)c(C(F)(F)F)nc3ccccc32)cc1` (stereo unspecified) the “activity change, positive = activation” value was inactive: 5.33%. Compound `COc1ccc(-c2cc(C(=O)Nc3c(C)nn(Cc4ccc(C)cc4)c3C)no2)cc1OC` has an activity change, positive = activation of -3.93%. In the case of `Cc1ccc(Nc2nn3c(=O)c4cc5c(cc4nc3s2)OCO5)cc1Cl`, the “activity change, positive = activation” value was inactive: -13.2%. `Cc1cc(C)cc(S(=O)(=O)Nc2cccc(-c3ccc(N4CCOCC4)nn3)c2)c1` gave an activity change, positive = activation of -8.19%. `CCCc1c(C)c2ccc(O)c(CN3CCN(c4ccc(F)cc4)CC3)c2oc1=O` showed an activity change, positive = activation of -11.5%. `CCOC(=O)CN1C(=O)C(O)(CC(=O)c2cc(OC)ccc2OC)c2ccccc21` (stereo unspecified) gave an activity change, positive = activation of -10.6%. With `CC(=O)c1cc2c(cc1NC(=O)c1c(C)nn(-c3ccc(C)cc3)c1-n1cccc1)OCO2` the activity change, positive = activation was 4.04%. `CC1CCN(Cc2c(O)ccc3c(=O)c(-c4cccc(Cl)c4)c(C(F)(F)F)oc23)CC1` gave an activity change, positive = activation of 4.2%. In the case of `CCCCCCCCCCCCCCCC(=O)O[C@H]1[C@@H](O)[C@@H](O)[C@@H]([C@H](NC(=O)[C@@H]2C[C@@H](CCC)CN2C)[C@H](C)Cl)O[C@@H]1SC`, the “activity change, positive = activation” value was inactive: -11.4%. `COc1ccccc1C(=O)Nc1cc2c(cc1N1CCOCC1)n(C)c(=O)n2C` showed an activity change, positive = activation of 1.29%. In the case of `Cc1cccc(NS(=O)(=O)c2ccc3oc(=O)c4ncn(C)c4c3c2)c1C`, the activity change, positive = activation was -14.1%. With `CC(C)c1nn(-c2c(Cl)cccc2Cl)c2nc(Cc3ccc(OCCO)cc3)[nH]c(=O)c12` the “activity change, positive = activation” value was inactive: -41.7%. In the case of `Cc1cccc(CNC(=O)Cn2nc(C)n3c(cc4cc(F)ccc43)c2=O)c1`, the activity change, positive = activation was -10.2%. In the case of `COc1ccc2c(c1)CCc1c(C(=O)Nc3ccc(F)c(Cl)c3)noc1-2`, the activity change, positive = activation was 35.1%. For `COc1ccc(S(=O)(=O)N(CCc2ccccc2)CC(=O)Nc2ccc(C)c(C)c2)cc1OC`, the activity change, positive = activation was -30.8%. `O=C(Nc1cccc(-c2nc3ccccc3o2)c1)c1ccc(-c2ccc(Br)cc2)o1` showed an activity change, positive = activation of 2.67%. For `O=S(=O)(Nc1ccc(-c2ccc(N3CCCC3)nn2)cc1)c1ccc(Cl)cc1`, the activity change, positive = activation was 3.86%. `CCOC(=O)c1cccc(NC(=O)CC2C(=O)N(c3ccc(OC)cc3)C(=O)N2C2CCCC2)c1` (stereo unspecified) showed an activity change, positive = activation of -15.1%. Work on `COC(=O)CN1C(=O)CSc2ccc(S(=O)(=O)Nc3cccc(C)c3C)cc21` yielded an activity change, positive = activation of -24.2%. Compound `CCOc1ccc(CNC(=O)c2cc3c(=O)n(Cc4cccs4)ccc3nc2C)cc1` has an activity change, positive = activation of -20%. With `CCc1c(C)sc(NC(=O)c2cc(-c3ccc(OC)cc3)on2)c1C#N` the activity change, positive = activation was -6.35%. For `CCOc1ccc(CCNC(=O)CSc2n[nH]c(-c3ccccc3)n2)cc1OCC`, the “activity change, positive = activation” value was inactive: -11.9%. `Cc1ccc(O)c(NC(=O)c2cc(-c3ccc4c(c3)OCO4)on2)c1` gave an activity change, positive = activation of 64.2%. `CCCOC(=O)c1c(NC(=O)C2c3ccccc3Oc3ccccc32)sc2c1CCCC2` gave an activity change, positive = activation of -2.8%. For `Cc1c(NC(=O)c2cc(-c3cccc(O)c3)on2)c(=O)n(-c2ccccc2)n1C`, the activity change, positive = activation was -20.3%. In the case of `Cc1ccc(NC(=O)CSc2nnc3[nH]c(=O)cc(-c4ccccc4)n23)cc1Cl`, the Potency was active: 14.1 µM. Work on `CCCCOc1ccc(S(=O)(=O)Nc2ccc(-c3ccc(N4CCC(C)CC4)nn3)cc2)cc1` yielded an activity change, positive = activation of 4.29%. Work on `CCc1nn(CC(=O)NC(C)CCc2ccccc2)c(=O)c2cc3c(OC)cccc3n12` (stereo unspecified) yielded an activity change, positive = activation of -0.363%. For `Cc1cccc(-n2ncc3c(N4CCCC(C)C4)ncnc32)c1` (stereo unspecified), the “activity change, positive = activation” value was inactive: -63.2%. With `CCc1c(C)c2cc3c(c(C)c2oc1=O)OCN(CCc1ccc(OC)c(OC)c1)C3` the activity change, positive = activation was -20.2%. In the case of `COc1ccc2[nH]cc(CCNC(=O)Nc3cc(C)cc(C)c3)c2c1`, the “activity change, positive = activation” value was inactive: 7.14%. Compound `COc1ccccc1CNC(=O)C1CCN(S(=O)(=O)Cc2ccccc2)CC1` has an activity change, positive = activation of 0.588%. In the case of `COc1cc(C2CC(=O)c3c([nH]c(C(=O)OC4CCCC4)c3C)C2)cc(OC)c1OC` (stereo unspecified), the “activity change, positive = activation” value was inactive: -54%. With `COc1ccc(CCNc2oc(COc3cccc(C)c3)nc2C#N)cc1OC` the “activity change, positive = activation” value was inactive: -31.9%. For `CCCc1cc(=O)[nH]c(Nc2ccccc2O)n1`, the activity change, positive = activation was 4.27%. `Cc1nn(-c2ccc(N3CCCC3)nn2)c(C)c1CCC(=O)NCc1ccccc1` gave an activity change, positive = activation of 1.25%. With `Cc1nn(-c2ccc(N3CCCC3)nn2)c(C)c1CCC(=O)Nc1ccccc1` the activity change, positive = activation was 5.5%. `CCOC(=O)c1ccc(N2CCN(c3cc(Cl)ccc3C)CC2)c(NC(=O)Nc2ccc(OCC)cc2)c1` gave an activity change, positive = activation of -1.59%. In the case of `CCOC(=O)c1ccc(N2CCN(c3ccc(F)cc3)CC2)c(NC(=O)Nc2ccc(CC)cc2)c1`, the activity change, positive = activation was 15%. In the case of `O=C1C(=O)N(C2CCN(C(=O)c3ccccc3F)CC2)CCN1Cc1ccc(F)cc1`, the activity change, positive = activation was 2.22%.

Source: PubChem BioAssay AID1508624 (National Center for Advancing Translational Sciences (NCATS), 2021)
Potency means the concentration at half of the fitted maximal effect.
